Out of some 410,000 compounds screened, about 530 (0.13%) were called active. Inconclusive results, whose numbers are uncertain, are shown with a selection of clear calls. Calls follow the shape of the dose curve; as a rule, active = well fitted inhibition curve with a large enough effect; inconclusive = small, poorly fitted or top-dose-only effect, or another doubt; inactive = no such curve, though single readings can be large or run the other way. A potency beside an inconclusive call is a rough fit, not a confirmed value.
Experiment: qHTS of GLP-1 Receptor Inverse Agonists: Cytotox Screen
Conditions: HEK293 cAMP-luciferase reporter cells, luminescence, 24 h; series mostly up to 38.3 µM
Summary of the method: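 Luminescence readout: signal drop marks cytotoxicity. Plated cells grew 12 h at 37 °C, 5% CO2, received 23 nL compound for 24 h, then got luciferase reagent, read after 12 min at RT.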
Potency is read from the fitted curve at half-maximal effect.

SMILES	Potency
OC(c1ccccc1)(c1ccccc1)C1CN2CCC1CC2 (stereo not given)	inactive
CCN(CC)C1=NC(=[N+](CC)CC)c2ccccc21	inconclusive: 4.47 µM [inhibitor, partial curve]
CC1CN=C(NCCc2ccccc2)S1 (stereo not given)	inconclusive: 28.2 µM [inhibitor, single point]
COc1ccc(/C=N/Nc2ncnc3scc(-c4ccccc4)c23)cc1OC	inconclusive: 20 µM [inhibitor, single point]
O=c1c2ccccc2[nH]c(=S)n1-c1ccc2c(c1)OCCO2	inactive
Nc1ncnc2c1ccn2[C@@H]1O[C@H](CO)[C@@H](O)[C@H]1O	inconclusive: 1.58 µM [inhibitor, partial curve, poor fit]
CN1C(=CC=C2C=C(I)C(=O)C(I)=C2)C(C)(C)c2ccccc21	inconclusive: 1.78 µM [inhibitor, full curve]
CCOC(=O)CC(NC(=O)C(Cc1ccc(N(CCCl)CCCl)cc1)NC(C)=O)C(=O)OCC (stereo not given)	inconclusive: 12.6 µM [inhibitor, single point]
CCCCC(=O)N/N=C/c1c(O)n(Cc2ccco2)c(=O)[nH]c1=O	inactive
O=C(NC(=O)c1c(F)cccc1F)Nc1cc(Cl)c(F)c(Cl)c1F	inactive
CC(=O)Nc1ccc(N=Cc2c(O)n(Cc3ccco3)c(=O)[nH]c2=O)cc1	inconclusive: 31.6 µM [inhibitor, single point]
Cc1[nH]c2ccc(OC(F)(F)F)cc2c1CCNCc1ccc(Cl)cc1	inconclusive: 28.2 µM [inhibitor, single point]
C=C1CC2(CC(c3ccccc3)OC(c3ccccc3)C2)OC1=O (stereo not given)	inconclusive: 11.2 µM [inhibitor, partial curve, poor fit]
Clc1ccccc1N1CCN(Cc2ccc3c(c2)OCO3)CC1	inactive
CN(C)CCCNC(=S)Nc1ccc(-c2ccccc2)cc1	inconclusive: 28.2 µM [inhibitor, single point]
CCOC(=O)[C@]12Cc3ccc(C)cc3[C@H]1N(C1CCCCC1)C(=O)c1cc(OC)ccc12	active: 11.2 µM
CN(C)c1ccc(/C=N/NC(=O)c2ccc3nc[nH]c3c2)cc1	inconclusive: 15.8 µM [inhibitor, single point]
COCCCNC(=O)c1cc(C(=O)c2c(-c3c(Cl)cccc3Cl)noc2C)c[nH]1	inconclusive: 28.2 µM [inhibitor, single point]
O=C(O)C(c1ccccc1)N1C(=O)/C(=C\c2ccc(O)c(O)c2)SC1=S (stereo not given)	inconclusive: 11.2 µM [inhibitor, partial curve, poor fit]
O=C(Nc1ncc2c(n1)-c1ccccc1CC2)c1cccc(Cl)c1	inconclusive: 5.01 µM [inhibitor, partial curve]

SMILES	Potency
CCCCCCOc1ccc(CN2CCN(CC)CC2)cc1	inconclusive: 14.1 µM [inhibitor, single point]
O=C(C[C@H]1C[C@H](C(=O)N2CCCCC2)[C@@]2(CCc3ccccc3)c3[nH]c4cc(-c5ccco5)ccc4c3CCN2C1=O)NCCN1CCOCC1	inconclusive: 10 µM [inhibitor, single point]
CC(C)N1C(=S)SC(C)(C)C1NO (stereo not given)	inconclusive: 11.2 µM [inhibitor, partial curve]
CCOC(=O)c1ccc(-[n+]2c(-c3ccccc3)cc(-c3ccccc3)cc2-c2ccccc2)cc1	inconclusive: 8.91 µM [inhibitor, partial curve]
O=C1NC(=O)N(Cc2ccco2)C(=O)/C1=C\c1cccn1CCOc1ccc(Cl)cc1	inactive
O=c1[nH]c(O)c(N=Nc2cc(C(F)(F)F)ccc2Cl)c(=O)[nH]1	inconclusive: 14.1 µM [inhibitor, partial curve, poor fit]
CCn1ccnc1CN1CCCC(C(=O)c2cccc(C(F)(F)F)c2)C1 (stereo not given)	inconclusive: 12.6 µM [inhibitor, partial curve, poor fit]
Cc1cc(/C=C2\C(=O)NC(=O)N(c3ccc(F)cc3)C2=O)c(C)n1-c1cccc(C(=O)O)c1	inactive
CCCCN(CC)CCCNC(=O)c1ccc2c(c1)N(Cc1ccc(C)cc1)C(=O)c1ccccc1S2	inconclusive: 11.2 µM [inhibitor, single point]
CSc1ccc(C(=O)C2CCCN(Cc3cc4ccccc4[nH]3)C2)cc1 (stereo not given)	inconclusive: 28.2 µM [inhibitor, single point]
CC(=O)OC1CC2(O)C3CCC4CC(O)CCC4(C)C3CCC2(C)C1C1=CC(=O)OC1 (stereo not given)	inconclusive: 0.282 µM [inhibitor, full curve, poor fit]
CCC(Oc1cc(Cl)ccc1Cl)C(=O)NN1C(=O)C2C3CCC(C3=C(C)C)C2C1=O (stereo not given)	inconclusive: 17.8 µM [inhibitor, single point]
CCOC(=O)[C@]12Cc3c(cc(OC)c(OC)c3OC)[C@H]1N(C)C(=O)c1cc(OC)ccc12	inactive
Cc1cc(Nc2cccc(C(F)(F)F)c2)nc2ccc(NC(=O)c3cccnc3)cc12	inconclusive: 10 µM [inhibitor, partial curve]
Cc1[nH]nc2ccc(-c3cncc(OC[C@@H](N)Cc4c[nH]c5ccccc45)c3)cc12	inconclusive: 0.794 µM [inhibitor, full curve, poor fit]
CN1C(=O)/C(=C/c2cccn2-c2ccc3ccccc3c2)C(=O)NC1=S	inconclusive: 22.4 µM [inhibitor, single point]
COc1ccc(CN2CCCC(C(=O)c3ccc(Cl)cc3)C2)c(OC)c1 (stereo not given)	inconclusive: 2.82 µM [inhibitor, single point]
COc1ccc(Oc2ccc(/C=C/C(=O)c3ccc(O)cc3)cc2[N+](=O)[O-])cc1	inconclusive: 28.2 µM [inhibitor, single point]
C[C@]12CC[C@@H]3c4ccc(O)c(O)c4CC[C@H]3[C@@H]1CC[C@@H]2O	inconclusive: 12.6 µM [inhibitor, partial curve, poor fit]
O=C(Nc1nnc(-c2ccccc2)o1)c1cccc(S(=O)(=O)N2CCOCC2)c1	active: 10 µM

— PubChem BioAssay AID624418 (National Center for Advancing Translational Sciences (NCATS), 2012)
